Test results as given in PMC4336329 (PLoS ONE, 2015).
Among all 310,000 compounds or so, about 2,200 (0.71%) showed an effect of 50% or more. Effects have a minus sign here. The list shows a part of the results.

The compounds below were run against human ether-à-go-go-related gene (hERG) potassium channel (human, UniProt Q12809) (assay: primary screen, population patch clamp on CHO cells stably expressing hERG).
Sequence of human ether-à-go-go-related gene (hERG) potassium channel (Q12809 whole entry, looked up): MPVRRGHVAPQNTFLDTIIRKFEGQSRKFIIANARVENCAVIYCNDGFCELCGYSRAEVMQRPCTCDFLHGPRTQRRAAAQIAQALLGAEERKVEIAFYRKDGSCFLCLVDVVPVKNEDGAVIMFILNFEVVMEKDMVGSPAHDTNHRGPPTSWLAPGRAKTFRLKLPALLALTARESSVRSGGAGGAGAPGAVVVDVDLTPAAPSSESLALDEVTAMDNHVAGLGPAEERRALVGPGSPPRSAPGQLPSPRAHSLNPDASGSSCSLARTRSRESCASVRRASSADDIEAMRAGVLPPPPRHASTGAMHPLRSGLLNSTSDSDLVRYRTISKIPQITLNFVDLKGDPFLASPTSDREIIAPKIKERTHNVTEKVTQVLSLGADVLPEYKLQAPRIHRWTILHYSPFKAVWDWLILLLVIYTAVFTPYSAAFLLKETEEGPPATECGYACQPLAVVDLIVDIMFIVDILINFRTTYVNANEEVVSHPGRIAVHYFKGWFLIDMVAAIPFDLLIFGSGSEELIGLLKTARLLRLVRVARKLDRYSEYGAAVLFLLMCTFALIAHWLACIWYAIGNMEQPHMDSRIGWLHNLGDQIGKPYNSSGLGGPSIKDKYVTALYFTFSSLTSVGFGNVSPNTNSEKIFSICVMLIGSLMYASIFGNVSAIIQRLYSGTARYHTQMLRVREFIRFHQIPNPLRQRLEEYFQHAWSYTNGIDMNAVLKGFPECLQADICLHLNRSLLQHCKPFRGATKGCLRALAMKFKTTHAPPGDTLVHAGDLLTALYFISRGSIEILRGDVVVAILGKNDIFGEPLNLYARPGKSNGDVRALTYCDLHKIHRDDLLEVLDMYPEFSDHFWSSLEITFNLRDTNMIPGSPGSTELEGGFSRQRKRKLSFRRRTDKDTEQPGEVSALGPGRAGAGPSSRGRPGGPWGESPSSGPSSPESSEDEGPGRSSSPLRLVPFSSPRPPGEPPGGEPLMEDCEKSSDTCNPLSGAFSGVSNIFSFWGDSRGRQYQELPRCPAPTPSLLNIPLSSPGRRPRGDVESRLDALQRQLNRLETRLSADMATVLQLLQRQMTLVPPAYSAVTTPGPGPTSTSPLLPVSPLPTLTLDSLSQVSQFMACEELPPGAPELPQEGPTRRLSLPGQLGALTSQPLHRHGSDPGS

SMILES | hERG current change (%, negative = inhibition) at 1uM [%]
O=C(NNC(=S)NC(=O)c1ccccc1[N+](=O)[O-])c1ccccc1Cl | 12.2
C=CCN(c1nc(C)cc(OC)n1)S(=O)(=O)c1ccc(C)cc1 | 20.2
Nc1[nH]n(-c2ccccc2)c(=O)c1N=Nc1ccc2ncsc2c1 | 8.47
COC(=O)c1ccc(/C=N/Nc2nc(-c3ccc(C)cc3)cs2)cc1 | 5.67
CC12CN3CC(C)(CN(C1)C3c1cccs1)C2O (stereo not drawn) | -2.29
Oc1ccc(-n2nnnc2SCc2ccccc2Br)cc1 | 16.8
CN(C)c1ccc(/C=N/N=C2/SC(CC(=O)O)C(=O)N2c2ccc(O)cc2)cc1 (stereo not drawn) | 12.3
C=CCOC(=O)C1=C[C@@H](c2ccc3c(c2)OCO3)C[C@@H](OCCCCO)O1 | 3.68
C=C(C)c1cccc(C(C)(C)NC(=O)N2CCCC2)c1 | 8.97
c1coc(Cn2c(SCc3nc4ccccc4[nH]3)nnc2-c2cnccn2)c1 | -21.2
Cc1cc(S(=O)(=O)Nc2ccc(C(=O)NCc3ccncc3)cc2)ccc1F | 14.8
O=C(O)C1C2CC3CC(C2)CC1(n1ncc(N2CCC4(CC2)OCCO4)c(Cl)c1=O)C3 (stereo not drawn) | 10.7
Cc1cc(C#N)c(SCC(N)=O)nc1-c1ccc(F)cc1 | 10.5
COc1ccc(-c2cc3c(=O)n(CC(=O)Nc4cccc(Cl)c4)nc(C)n3n2)cc1 | 0.236
Cc1nc(C)c(C(=O)N/N=C/c2cc(Br)ccc2O)s1 | 25.4
CCCCCC(=O)N/N=C/c1ccc(N(C)C)cc1 | 2.58
COc1ccc(OCC(=O)NS(=O)(=O)c2ccc(Cl)cc2)cc1 | 13.9
CCCN1C(=O)COc2ccc(C(=O)c3ccccc3C(=O)O)cc21 | 17.1
CNc1ccccc1C(C)(C)c1cc(-c2cccc([N+](=O)[O-])c2)no1 | 10.8
CSc1ccc(/C=C/C(=O)c2ccc(O)cc2)cc1 | 5.62
COc1ccc(-c2nnnn2C)cc1S(=O)(=O)NCCc1ccccc1 | 11.7
O=C(CSc1nc2c(cnn2-c2ccc(F)cc2)c(=O)[nH]1)Nc1nccs1 | 4
CN1C(=O)CC(N2CCC(C(N)=O)CC2)C1=O (stereo not drawn) | 1.75

SMILES | hERG current change (%, negative = inhibition) at 1uM [%]
Cc1ccccc1NC(=O)CN1CCN(Cc2ccccc2)CC1 | 1.75
CCOc1ccccc1N=Cc1c(O)c2ccccc2oc1=O | 15.4
CCN(CC)CCN(C(=O)c1ccc(S(=O)(=O)N(C)C2CCCCC2)cc1)c1nc2c(C)cccc2s1.Cl | 2.81
CCC1NC(=O)c2ccccc2N1c1cccc(Cl)c1 (stereo not drawn) | 10.9
Oc1ccc2ccc3[nH]cnc3c2c1 | -2.33
Cc1cccc(/C=c2\s/c(=C\C(=O)C(C)(C)C)[nH]c2=O)c1 | 11.3
O=C(COC(=O)/C=C/c1cccc(C(F)(F)F)c1)Nc1cccc2ccccc12 | 8.61
CC(C)N(C(=O)CN1C(=O)C(=O)c2ccccc21)c1ccccc1 | 1.25
O=C1Nc2ccccc2Oc2cc([N+](=O)[O-])cc(Oc3ccccc3)c21 | -4.94
COc1cc(/C=C(\C#N)C(=O)Nc2ccc3ccccc3c2)c([N+](=O)[O-])cc1OC | 7.46
COC(=O)CCCC(NC(=S)N1CC2C[C@@H](C1)Cn1c2cccc1=O)C(=O)OC (stereo partly drawn) | 5.9
CCN(CC)CC(C)OC(=O)c1ccccc1Cl (stereo not drawn) | 21.8
O=[N+]([O-])c1ccc(N2CCOCC2)c2cccnc12 | -7.04
c1ccc(Nc2ncnc3c2oc2ccccc23)cc1 | 7.89
C#Cc1ccc([C@@H]2C=C(C(=O)N3CCN(Cc4ccccc4)CC3)O[C@H](OCC)[C@H]2CCCO)cc1 | 14.6
O=C(Oc1ccccc1C(=O)N1CCOCC1)c1ccccc1 | 9.69
O=C(NCC(c1cccnc1)N1CCN(c2ccccc2)CC1)Oc1ccccc1 (stereo not drawn) | 9.09
Cc1cccnc1NC(=O)Cn1nc(C)c([N+](=O)[O-])c1C | 5.46
CCN(Cc1ccccc1)C(=O)c1cc(COc2c(F)cccc2F)on1 | 9.59
Cn1cc(/C=N\NC(=O)C2COc3ccccc3O2)c2ccccc21 (stereo not drawn) | 8.45
Cc1ccc(N(CCC#N)C(=O)CCl)cc1C | 8.95
COc1cc(/C=C/C(=O)O)cc2c1OCCO2 | 19.6
CN(C)C(=S)NC(=O)c1cccc(Cl)c1 | 13.3

SMILES | hERG current change (%, negative = inhibition) at 1uM [%]
O=C(/C=C/c1ccccc1Cl)NC1CCS(=O)(=O)C1 (stereo not drawn) | 20.9
CC(=O)OCCSc1c(-c2ccccc2)c2cc(Cl)ccc2[nH]c1=O | -1.73
NS(=O)(=O)c1ccc(Nc2nc(-c3ccc(O)cc3O)cs2)cc1 | 5.54
N#CCn1c(CCl)nc2ccccc2c1=O | 11.8
O=C(Nc1csc(Cc2c(Cl)cccc2Cl)n1)NN1CCOCC1 | 14.8
CN1C(=O)C(=Cc2ccccc2OS(=O)(=O)c2ccccc2)C(=O)N(C)C1=O | 9.02
Nc1ccccc1C(=O)NCc1ccccc1 | 1.59
CC(OC(=O)c1cnc2ccccc2n1)c1ccccc1Cl (stereo not drawn) | 8.02
Cc1cc(-n2c(=S)sc3c(=O)n(-c4ccc(F)cc4)c(SCC(=O)O)nc32)ccc1Cl | 18.8
N=C1S/C(=C\c2cccc3ccccc23)C(=O)N1c1ccc(F)cc1 | 14.8
COc1ccc(C(NC(=O)C(C)(C)C)NC(=O)C(C)(C)C)cc1 | 20.2
CC(CC(=O)c1cccs1)CC(=O)c1cccs1 | 6.05
COc1cc(SC)ccc1C(=O)Nc1cccc(S(=O)(=O)NC2=NCCC2)c1 | 3.3
O=C(/C=C/c1cn(-c2ccccc2)nc1-c1ccccc1)Nc1ccc(C(=O)O)cc1 | 19.2
O=C(Nc1cc([N+](=O)[O-])ccc1C(=O)Nc1cccnc1)c1ccccc1 | 2.44
CC(=O)Nc1cccc(NC(=O)CCCC(=O)O)c1 | 7.91
O=C(Nc1ccc(C(=O)N2CCOCC2)cc1)c1ccccc1[N+](=O)[O-] | 14.9
CCOC(=O)c1[nH]c2ccc(F)cc2c1NC(=O)CN1CCN(C/C=C/c2ccccc2)CC1 | -77.3
CCN(CC)S(=O)(=O)c1ccc(/C=C/C(=O)Nc2ccc(Br)cc2F)cc1 | 1.33
COC(=O)CNC(=O)COC(=O)/C=C/c1ccc2ccccc2n1 | 9.01
COc1ccc(CN2C(=O)Cc3c2nc(N)c2c(N)nc(N4CCOCC4)c(C#N)c32)cc1 | 2.96
CCOc1ccccc1CNS(=O)(=O)c1cc(-c2cc(C)no2)ccc1C | 8.79
COc1ccc(-c2nc(C#N)c(NC(C)C)o2)cc1 | 21.2

SMILES | hERG current change (%, negative = inhibition) at 1uM [%]
CN(C)C=Nc1ccc2nc3c(cc2c1)[nH]c1ccccc13 | 12.7
Cc1cc(C)c(S(=O)(=O)Cc2ccccc2)c(=O)[nH]1 | 9.25
COCCNC(=O)COC(=O)c1cc(-c2ccc(OC)cc2)nc2ccccc12 | 12.8
CSc1n[nH]c(=O)n1-c1ccc(Cl)cc1 | 7.97
O=C1OC(c2ccccc2)=N/C1=C/c1cccc(OC(=O)c2cccs2)c1 | 9.88
CC(C)OCCCNC(=O)c1cccc(NC(=O)c2ccccc2)c1 | 4.17
COc1ccccc1OCCSc1nnnn1C1CCCCC1 | -0.53
CCOC(=O)c1sc(=NC(=O)COc2ccc(Cl)cc2)n(C)c1C | 9.2
Cc1nc(Cl)c2c(n1)NC1=C(O2)C(=O)CCC1 | 12.7
CSCCC1NC(=S)N(Cc2ccccc2)C1=O (stereo not drawn) | 17.9
CC(C)(C)OC(=O)C1C(=O)CC(C)(O)C(C(=O)OC(C)(C)C)C1c1ccco1 (stereo not drawn) | 5.21
CCN(c1ccccc1)S(=O)(=O)c1cc(C(=O)O)ccc1C | 2.11
O=C(O)c1ccc(-n2c(O)c(C=C3N=c4ccccc4=N3)sc2=S)cc1 | 0.383
Cc1cc(C)cc(NC(=O)C2CCCN(S(=O)(=O)c3c(C)noc3C)C2)c1 (stereo not drawn) | 1.27
COc1cc2c(cc1OC)-c1cc(OCc3ccccc3Cl)nc(=O)n1CC2 | -7.33
CC(=O)Nc1ccc(NC(=O)c2c(-c3ccccc3Cl)noc2C)c(C)c1 | 1.96
CCOC(=O)c1cnn(-c2ncnc3c2cnn3Cc2ccccc2)c1N | 11.4
CCOC(=O)N1CCN(C(=O)Nc2ccc(Cl)cc2Cl)CC1 | 8.25
COc1ccccc1CNS(=O)(=O)c1cccs1 | 15.3
C=CCOc1cccc(C2/C(=C(/O)c3ccc4c(c3)CC(C)O4)C(=O)C(=O)N2CCN2CCOCC2)c1 (stereo not drawn) | 7.91
CC1CCN(S(=O)(=O)c2ccc(NC(=O)CN3CCN(c4ccccc4)CC3)cc2)CC1 | -10.4
